Experimental data published in US20170334979A1 (published 2017).

Biological target: 10GE
Test: purified sdAb binding

Sequence of 10GE (P07724 25-608): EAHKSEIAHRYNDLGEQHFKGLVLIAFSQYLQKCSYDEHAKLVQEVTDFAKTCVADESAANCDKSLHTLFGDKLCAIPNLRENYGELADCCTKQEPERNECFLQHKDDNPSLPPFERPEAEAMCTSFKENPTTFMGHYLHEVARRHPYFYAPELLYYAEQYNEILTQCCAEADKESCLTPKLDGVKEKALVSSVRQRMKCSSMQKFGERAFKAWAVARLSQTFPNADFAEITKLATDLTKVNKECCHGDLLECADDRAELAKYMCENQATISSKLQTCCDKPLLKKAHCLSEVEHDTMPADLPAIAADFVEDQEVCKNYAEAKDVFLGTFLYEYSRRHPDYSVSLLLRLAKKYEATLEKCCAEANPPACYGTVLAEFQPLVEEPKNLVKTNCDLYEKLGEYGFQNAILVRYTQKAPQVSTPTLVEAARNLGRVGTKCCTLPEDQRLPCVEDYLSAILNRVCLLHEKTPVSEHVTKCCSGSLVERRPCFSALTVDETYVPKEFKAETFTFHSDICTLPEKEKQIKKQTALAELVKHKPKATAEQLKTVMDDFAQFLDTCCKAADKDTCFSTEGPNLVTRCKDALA

B1: mouse serum albumin (other)
chain: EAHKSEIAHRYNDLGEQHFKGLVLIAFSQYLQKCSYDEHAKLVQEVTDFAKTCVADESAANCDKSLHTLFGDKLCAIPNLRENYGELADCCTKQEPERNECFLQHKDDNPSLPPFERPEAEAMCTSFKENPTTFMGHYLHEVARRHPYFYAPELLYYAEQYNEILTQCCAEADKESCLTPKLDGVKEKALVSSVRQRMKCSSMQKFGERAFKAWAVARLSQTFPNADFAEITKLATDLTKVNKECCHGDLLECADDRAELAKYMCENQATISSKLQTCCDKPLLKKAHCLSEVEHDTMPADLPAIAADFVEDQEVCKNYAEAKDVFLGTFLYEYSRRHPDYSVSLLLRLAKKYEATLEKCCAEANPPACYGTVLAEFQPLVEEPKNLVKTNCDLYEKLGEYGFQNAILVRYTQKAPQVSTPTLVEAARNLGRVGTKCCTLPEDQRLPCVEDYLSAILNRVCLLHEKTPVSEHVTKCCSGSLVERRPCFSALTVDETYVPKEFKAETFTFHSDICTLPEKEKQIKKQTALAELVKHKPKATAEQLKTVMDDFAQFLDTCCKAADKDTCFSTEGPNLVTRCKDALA
Kd: 16.1 nM
